The nature of experiment [1]: qHTS Assay for Lipid Storage Modulators (AID 1519). Conditions: Drosophila S3 cells, BODIPY lipid droplet/cell ratio, laser cytometry, cells loaded with oleic acid. The method, boiled down: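 Cells seeded at 5,000 per well were treated with compounds over a concentration series and loaded with oleic acid (400 uM, as added). Lipid droplet fluorescence (488 nm excitation, 500-530 nm channel) was read by laser-scanning cytometry and normalized to 20 uM Triacsin C.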

A short description of experiment [2]: S16 Schwann cell PMP22 intronic element beta-lactamase assay (AID 624044). Also: nearly all actives have a fitted effect of over 15% in size. Conditions: S16 rat Schwann cells, PMP22 element beta-lactamase FRET, 24 h. The method, boiled down:
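Rat S16 Schwann cells with beta-Lac driven by a PMP22 intronic element, compound-treated 24 h at 37 °C. LiveBLAzer FRET B/G read: 460 nm normalized to potassium clavulanate vs DMSO; 535 nm FRET as viability; concentration-effect curves classified.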

Experiment [3] can be described thus: qHTS drug screen for cell cycle checkpoint inhibitors in PARPi-resistant BRCA-mutant ovarian cancer cell lines. (AID 1963452). The following applies: PEO1/OlaR viability, CellTiter-Glo luminescence, 96 h. In outline:
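PEO1, PEO4 and PEO1/OlaR ovarian cancer cells, 600 per well, exposed 96 h at 37C to a dilution series. Viability read by CellTiter-Glo luminescence, normalized to DMSO and empty wells; activity summarized as Z-AUC.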
A general note: In qHTS, concentration-response curves come from the screen itself.

A short description of experiment [4]: qHTS for identification of novel therapeutic agents for treatment of microphthalmiaassociated transcription factor (MiT) renal cell carcinoma (RCC) (AID 1963991). Conditions: CellTiter-Glo, 48 h; for z-score: stronger effect = lower value. In outline: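 Curves over 11 concentrations were fitted to CellTiter-Glo luminescence, scaled between empty wells (0%) and DMSO (100%) viability. Cells were UOK109, UOK124 and UOK145 TFE3-fusion RCC lines at 500/well, exposed 48 hours at 37 C.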

Experiment [5] in a line: qHTS Assay for Modulators of Human Peripheral Myelin Protein 22 (PMP22) Expression/Activity (AID 1967). The following applies: Cell-based PMP22 reporter, dual-color luciferase ratio. The method, boiled down:
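Readout is the corrected green/red luminescence ratio after 24 h compound exposure, normalised to untreated cells (0%). Engineered MSC80 mouse Schwann cells express green luciferase from the mouse Pmp22 promoter and red luciferase from EF-alpha as internal control.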

The nature of experiment [6]: qHTS Validation Assay to Find Inhibitors of Chronic Active B-Cell Receptor Signaling (AID 485345). The following applies: ABC-DLBCL cells, chronic BCR signaling reporter. In outline:
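TMD8 ABC-DLBCL cells with dox-inducible green luciferase–IκBα fusion and red native luciferase; compounds 46 uM–3 nM, 4 h at 37C with doxycycline in 0.5% FBS IMDM. Green/red ratio normalized to basal and 10 uM MG-132.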

In experiment [7] the target is Catechol O-methyltransferase (Homo sapiens) (UniProt P21964). Nature of the experiment: Confirmatory Screen for Target Class Profiling of Small Molecule Inhibitors of Methyltransferases (AID 1745852).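 Also: inhibitor potency for blocking SAH production.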 Conditions: MTase-Glo luminescence, SAH detection, recombinant enzyme; measured here: COMT inhibition potency.
Chain of UniProt P21964 (P21964 whole entry, looked up): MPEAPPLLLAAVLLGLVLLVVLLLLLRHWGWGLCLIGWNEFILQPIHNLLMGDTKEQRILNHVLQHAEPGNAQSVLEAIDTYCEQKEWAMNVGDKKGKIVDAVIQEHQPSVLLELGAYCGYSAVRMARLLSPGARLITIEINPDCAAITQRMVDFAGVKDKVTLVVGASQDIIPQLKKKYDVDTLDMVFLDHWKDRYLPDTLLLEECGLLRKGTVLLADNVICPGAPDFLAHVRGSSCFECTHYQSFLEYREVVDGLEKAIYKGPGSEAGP
The target in experiment [8] is Nicotinamide N-methyltransferase (Homo sapiens) (UniProt P40261). The description is as above. The following applies: MTase-Glo luminescence, SAH detection, recombinant enzyme; measured here: NNMT inhibition potency.
Chain of UniProt P40261 (P40261 whole entry, looked up): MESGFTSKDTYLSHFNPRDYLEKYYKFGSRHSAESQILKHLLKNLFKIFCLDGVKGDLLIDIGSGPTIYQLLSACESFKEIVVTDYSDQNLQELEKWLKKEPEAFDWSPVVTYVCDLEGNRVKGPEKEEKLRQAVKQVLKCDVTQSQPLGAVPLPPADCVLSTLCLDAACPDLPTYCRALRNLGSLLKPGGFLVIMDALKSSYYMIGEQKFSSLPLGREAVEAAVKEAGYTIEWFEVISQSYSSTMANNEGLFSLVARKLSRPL
Experiment [9] can be described thus: A High-Content qHTS Against Drug Library for the Identification of Small Molecules that Inhibit DYT1 Early Onset Primary Dystonia-Associated Cell Pathology (AID 1645839). Conditions: HEK293 Flp-In EGFP-delE TorsinA, punctate imaging, 48 h; measured here: cell count cytotoxicity. In outline:
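Readout: %pathology, the punctate EGFP-TorsinA distribution from imaging, as the primary channel and cell count as the toxicity counterscreen. HEK293 Flp-In cells expressing delE TorsinA were induced with tetracycline and treated with compound for 48 h.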

Experiment [10] is described as follows: Nrf2 qHTS screen for inhibitors: Validation (AID 493153). The following applies: A549 ARE-Fluc reporter, 18-24 h; AC50: CellTiter-Fluor fluorescence read, measured here: cytotoxicity CellTiter-Fluor AC50; viability change: measured here: cytotoxicity max response. The method, boiled down:
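Luminescence from an ARE-firefly luciferase reporter in A549 cells gives Nrf2 inhibition; an earlier CellTiter-Fluor fluorescent read flags cytotoxicity. Cells in 5% FBS OPTI-MEM received compound dilution series for 18-24 h at 37°C.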

Experiment [11] has as its target Histamine N-methyltransferase (Homo sapiens) (UniProt P50135). Nature of the experiment: Confirmatory Screen for Target Class Profiling of Small Molecule Inhibitors of Methyltransferases (AID 1745852).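 Also: inhibitor potency for blocking SAH production.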 Conditions: MTase-Glo luminescence, SAH detection, recombinant enzyme; measured here: HNMT inhibition potency.
Chain of UniProt P50135 (P50135 whole entry, looked up): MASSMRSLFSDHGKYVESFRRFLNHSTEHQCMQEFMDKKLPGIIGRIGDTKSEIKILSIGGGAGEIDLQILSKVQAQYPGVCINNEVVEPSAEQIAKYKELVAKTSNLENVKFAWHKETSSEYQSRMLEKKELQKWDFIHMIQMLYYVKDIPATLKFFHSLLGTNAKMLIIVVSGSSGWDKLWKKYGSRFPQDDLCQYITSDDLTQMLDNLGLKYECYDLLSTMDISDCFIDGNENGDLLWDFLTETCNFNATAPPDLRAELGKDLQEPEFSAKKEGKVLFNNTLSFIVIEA
In experiment [12] the target is Phenylethanolamine N-methyltransferase (Homo sapiens) (UniProt P11086). The description is as above. The following applies: MTase-Glo luminescence, SAH detection, recombinant enzyme; measured here: PNMT inhibition potency.
Chain of UniProt P11086 (P11086 whole entry, looked up): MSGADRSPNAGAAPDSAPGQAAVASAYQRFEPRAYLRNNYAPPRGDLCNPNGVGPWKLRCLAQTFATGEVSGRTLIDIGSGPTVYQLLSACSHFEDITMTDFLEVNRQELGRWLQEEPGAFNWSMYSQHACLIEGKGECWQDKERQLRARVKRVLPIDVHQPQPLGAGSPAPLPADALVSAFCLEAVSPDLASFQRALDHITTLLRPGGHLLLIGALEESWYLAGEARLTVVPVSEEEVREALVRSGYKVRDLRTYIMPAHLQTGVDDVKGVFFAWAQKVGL
[13] abbreviates: measured here: cell count channel max response.
Where [14] appears, read: measured here: cell number channel AC50.
Setting [15] is: measured here: lipid (BODIPY) channel AC50.
Setting [16] is: measured here: lipid channel max response.
Where [17] appears, read: measured here: 460 nm blue channel.
The mark [18] stands for this setting: measured here: 530 nm viability channel.
Setting [19] is: measured here: PEO1 parental viability.
The mark [20] stands for this setting: TFE3-RCC UOK109 viability, measured here: UOK109 Z-AUC.
The mark [21] stands for this setting: TFE3-RCC viability, measured here: UOK124 Z-AUC.
Setting [22] is: TFE3-RCC viability, measured here: UOK124 cell viability.
[23] abbreviates: TFE3-RCC viability, measured here: UOK145 Z-AUC.
The mark [24] stands for this setting: measured here: red reporter channel AC50, EF-alpha promoter control reporter in MSC80 mouse Schwann cells.
[25] abbreviates: measured here: CBG/CBR ratio read-out.
Setting [26] is: measured here: CBR control luciferase (viability counter).
[27] abbreviates: measured here: green reporter channel AC50, mouse Pmp22 promoter in mouse Schwann cells.

Molecules are shown by their SMILES. Several values for one entry are separate records, joined by “and”; a condition that tells them apart may be missing. Equal entries are not always repeated. Some of the results follow. These are further read-outs of the screen, such as a control signal, another cell line or another target. No call is given for them. For some of these results: Compounds called inactive in the main read-out are mostly missing here. For some of these results: Words in brackets tell the shape of the fitted curve; partial curves, single points and poor fits give uncertain potencies.
Tags tell the direction and shape of the fitted curve.

Turning to `COc1c(C)c2c(c(O)c1C/C=C(\C)CCC(=O)O)C(=O)OC2`, the max response was 45.1% and 22.3% and 44.3% in [1] (setting [13]); 54.5% and 34.3% and 58.8% in [1] (setting [16]). Also, the AC50 (as a rule, the concentration giving half of the maximal activity seen) in [1] (setting [14]) is 35.5 µM [rising, single point] and 6.31 µM [rising, full curve, poor fit]; in experiment [1] (setting [15]), 31.6 µM [rising, single point] and 20 µM [rising, partial curve, poor fit]; in experiment [2] (setting [17]) it was 0.951 µM [falling, full curve, poor fit]; in experiment [2] (setting [18]) it was 5.01 µM [rising, single point]; in experiment [3] (setting [19]), 1.74 µM [falling, full curve]; in [3] (measured here: PEO4 viability), 1.74 µM [falling, full curve].

As for `COc1cc2c(cc1OC)[C@@H]1C(=O)c3ccc4c(c3O[C@@H]1CO2)C=CC(C)(C)O4`, the max response in experiment [1] (setting [13]) was 56%; in experiment [1] (setting [16]), -38.6%. For the same molecule, the half-maximal activity concentration (AC50) in experiment [1] (setting [14]) is 0.794 µM [rising, full curve, poor fit]; in experiment [1] (setting [15]), 0.891 µM [falling, full curve, poor fit]; in [3] (setting [19]), 0.219 µM [falling, full curve]; in experiment [3] (measured here: PEO4 viability), 0.692 µM [falling, full curve, poor fit]; in [4] (setting [22]) it was 0.0469 µM [falling, full curve, poor fit]; in experiment [4] (TFE3-RCC viability, measured here: UOK145 cell viability), 37.2 µM [falling, single point]. Moreover, the z-score in experiment [4] (setting [20]) is -0.0241; in experiment [4] (setting [21]) it was -0.00519; in experiment [4] (setting [23]) it was -0.105.

In the case of `N#C/C(=C\c1ccc(O)c(O)c1)C(=O)NCCc1ccccc1`, the max response in [1] (setting [13]) is -60.1%; in experiment [1] (setting [16]), -64.7%. The AC50 in [1] (setting [14]) was 39.8 µM [falling, partial curve, poor fit]; in experiment [1] (setting [15]) it was 31.6 µM [falling, partial curve, poor fit]; in [5] (setting [24]) it was 21.3 µM [falling, full curve]; in [6] (setting [25]) it was 11.6 µM [falling, partial curve]; in experiment [6] (setting [26]) it was 18.4 µM [falling, single point]. Also, the IC50 (as a rule, the concentration at which inhibition is half-maximal) was 1.93 µM [rising, full curve] in experiment [7] and 21.7 µM [falling, partial curve] in experiment [8].

As to `NS(=O)(=O)c1cc2c(cc1Cl)NC(CSCc1ccccc1)=NS2(=O)=O`, the max response in experiment [1] (setting [13]) is 1.24% and 32%; in experiment [1] (setting [16]), 5.1% and 47.1%. Also, the AC50 was 8.91 µM [rising, partial curve, poor fit] in experiment [1] (setting [14]); 14.1 µM [rising, partial curve, poor fit] and 12.6 µM [rising, partial curve, poor fit] in experiment [1] (setting [15]); 0.19 µM [falling, full curve, poor fit] in experiment [2] (setting [17]); 35.5 µM [rising, single point] in [9].

Turning to `C=CCN1CCc2c(cc(O)c(O)c2Br)[C@@H](c2ccccc2)C1`, the max response in [1] (setting [13]) came to 57.3%; in [1] (setting [16]), 56.7%. The AC50 in [1] (setting [14]) is 28.2 µM [falling, partial curve, poor fit]; in experiment [1] (setting [15]), 28.2 µM [falling, partial curve, poor fit]; in experiment [5] (setting [24]), 15.1 µM [falling, full curve, poor fit]. The IC50 in experiment [7] was 17.2 µM [rising, partial curve].

Turning to `C[C@H](Cc1ccc(O)c(O)c1)[C@@H](C)Cc1ccc(O)c(O)c1`, the max response in experiment [1] (setting [13]) is -82.4%; in experiment [1] (setting [16]), -83.3%. Further, the AC50 in experiment [1] (setting [14]) is 35.5 µM [falling, partial curve, poor fit]; in experiment [1] (setting [15]) it was 35.5 µM [falling, partial curve, poor fit]; in [5] (setting [27]), 37.9 µM [falling, partial curve]; in experiment [5] (setting [24]), 84.9 µM [falling, single point]; in experiment [6] (setting [25]), 20.6 µM [falling, partial curve]; in experiment [6] (setting [26]), 29.1 µM [falling, single point]. The AC50 in experiment [3] (setting [19]) is 15.5 µM [falling, partial curve, poor fit]; in experiment [3] (measured here: PEO4 viability) it was 24.5 µM [falling, single point]; in [4] (setting [22]), 23.5 µM [falling, single point]. In addition, in experiment [10], the viability change was -6.93%. Further, the IC50 in experiment [7] is 1.09 µM [rising, full curve]; in experiment [11], 34.3 µM [falling, single point]; in experiment [8], 27.3 µM [falling, partial curve]; in experiment [12], 24.3 µM [falling, partial curve]. Also, the z-score in experiment [4] (setting [20]) came to 0.691; in experiment [4] (setting [21]) it was 0.801; in [4] (setting [23]), 0.537.

`O=C1C(=O)c2ccccc2C(O)=C1C1CCC(c2ccc(Cl)cc2)CC1` (stereo not drawn): the max response is -36.2% in experiment [1] (setting [13]) and -107% in experiment [1] (setting [16]). Also, the AC50 in [1] (setting [14]) was 6.31 µM [falling, full curve, poor fit]; in experiment [1] (setting [15]), 7.94 µM [falling, full curve]; in experiment [2] (setting [18]), 6.31 µM [falling, partial curve]; in experiment [9] it was 35.5 µM [rising, single point].

As for `COc1cc2c(cc1OC)-c1cc(=Nc3c(C)cc(C)cc3C)n(C)c(=O)n1CC2`, the figures for the max response in [1] (setting [13]) and in experiment [1] (setting [16]) were -68.8% and -67.6%, respectively. The AC50 was 44.7 µM [falling, single point] in experiment [1] (setting [14]); 44.7 µM [falling, single point] in experiment [1] (setting [15]); 42.6 µM [falling, partial curve] in experiment [5] (setting [27]); 33.8 µM [falling, partial curve] in experiment [5] (setting [24]); 22.4 µM [falling, partial curve] in [2] (setting [17]); 22.4 µM [falling, single point] in experiment [9].

For the origin of these results see PubChem BioAssay (NCATS).
